According to US20240190987A1, “Engineered EpCam Binding Antibodies” (TigaTX, priority 2021, published 2024):

Columns and labels:
[1] = tested on: human T-cells with AEKO target cells; assay: T-cell activation (CD69) in co-culture with AEKO; type: cell-based; details: up to 1 nM, 69 hours
Procedure: The HCT-116, AEKO and AEPO cell lines described above were used as target cells in a TDCC co-culture assay with Ab1070 (FIG. 35). […] EpCAM structure-activity relationship (SAR) campaign
Co-culture assays were used to assess T-cell activation (CD69 upregulation), cytokine production or T-cell-dependent cellular cytotoxicity (TDCC) of target cells. Flat-bottom 96-well plates were seeded with 5,000 target cells in complete growth media (DMEM+10% FBS+1% penicillin/streptomycin) 16-24 hrs before the assay. Antibody drugs were added in 10 μL growth media and incubated for at least 10 min at 37° C. Indinavir or vehicle control was added in 10 μL growth media. […] While T cells were being processed, target cells were incubated with CellTiter-Glo 2.0 (Promega, Madison, WI) for 15 min at room temperature with shaking then read for luciferase light emission on a GloMax Explorer plate reader using default settings. Specific Cytotoxicity (%) was calculated from the relative luminescence unit values (RLU) using the formula: [1−(experimental RLU/vehicle-treated RLU))×100]. The frequency of CD69+ T-cells (%) was calculated as the percentage of CD69-positive events within the CF405M-negative population. Dose-response curves and EC50 values were calculated in GraphPad Prism 9 software (GraphPad Software San Diego, CA).

HCT-116 target cells = assay: TDCC co-culture assay, HCT-116 target cells; type: cell-based, human; details: conventional TCE format, human T-cells
From the text: Leukapheresis packs were obtained from deidentified healthy adult donors (StemCell Technologies, Vancouver, BC). Peripheral blood mononuclear cells (PBMCs) were first isolated using the EasySep Direct Human PBMC Kit (StemCell Technologies). Human T cells were magnetically isolated from the PBMCs using the EasySep Human T cell Isolation Kit (StemCell Technologies). T cells were cryopreserved in DMEM with 10% FBS and 10% DMSO and thawed the day of experiments.
Co-culture assays were used to assess T-cell activation (CD69 upregulation), cytokine production or T-cell-dependent cellular cytotoxicity (TDCC) of target cells. Flat-bottom 96-well plates were seeded with 5,000 target cells in complete growth media (DMEM+10% FBS+1% penicillin/streptomycin) 16-24 hrs before the assay. Antibody drugs were added in 10 μL growth media and incubated for at least 10 min at 37° C. Indinavir or vehicle control was added in 10 μL growth media. Magnetically isolated human T-cells were thawed, washed, and resuspended in complete growth media, then added to target cells (50,000 T cells per well) in 80 μL growth media for a final assay well volume of 100 μL. The final effector:target (E:T) ratio was 10:1. Assay plates were incubated at 37° C. with 5% CO2 for 66-70 hr depending on the experiment. T-cells were transferred to a U-bottom 384-well plate and spun (600 rcf×5 min). Supernatants were stored at −20° C. for later analysis of cytokines. T-cells were resuspended in CF405M viability dye (0.5 μM, Biotium, Fremont, CA) in PBS for 10 min at 37° C. At the end of viability staining, cells were fixed by adding methanol-free paraformaldehyde (Electron Microscopy Sciences, Hatfield, PA) to a final concentration of 1% for 10 min at room temperature. T-cells were spun (600 rcf×5 min) and supernatant was aspirated. T-cells were stained with FITC-conjugated anti-human CD45 (BioLegend, San Diego, CA) at 1 pg/mL final dilution and PE-conjugated anti-human CD69 (BioLegend, San Diego, CA) at 400 ng/mL final dilution for 30 minutes at room temperature in the dark, then immediately run an IntelliCyt® iQue3 flow cytometer (Sartorius AG, Göttingen, Germany). While T cells were being processed, target cells were incubated with CellTiter-Glo 2.0 (Promega, Madison, WI) for 15 min at room temperature with shaking then read for luciferase light emission on a GloMax Explorer plate reader using default settings. Specific Cytotoxicity (%) was calculated from the relative luminescence unit values (RLU) using the formula: [1−(experimental RLU/vehicle-treated RLU))×100]. The frequency of CD69+ T-cells (%) was calculated as the percentage of CD69-positive events within the CF405M-negative population. Dose-response curves and EC50 values were calculated in GraphPad Prism 9 software (GraphPad Software San Diego, CA).

human PBMCs = assay: Surface staining of human PBMCs by flow cytometry; type: cell-based; details: TCRab+, CD4+ and CD8+ subsets
Procedure: FIG. 32 depicts Ab1070 binding to human and cynomolgus macaque PBMCs. Binding was measured by flow cytometry using a secondary fluorescent antibody (IgG-PE). T-cell subsets were identified using additional fluorescent antibodies against TCRab, CD4 and CD8 and gated prior to quantifying the median fluorescence intensity (MFI) of the IgG-PE channel. […] The assay was performed with up to 10 μM antibodies (titrated as indicated).
Peripheral blood mononuclear cells (PBMCs) from healthy cynomolgus macaques (Chinese origin) were obtained commercially (iQ Biosciences, Berkeley, CA). Peripheral blood mononuclear cells (PBMCs) from healthy human donors were isolated from leukapheresis packs (leukopaks) from deidentified healthy adult donors (StemCell Technologies, Vancouver, BC). Human PBMCs were isolated using the EasySep Direct Human PBMC Kit (StemCell Technologies) then cryopreserved in DMEM with 10% FBS and 10% DMSO. Frozen PBMC cryovials were thawed on the day of experiments and washed complete growth media (DMEM+10% FBS+1% penicillin/streptomycin). Cells were resuspended in growth media and transferred to a 96-well U-bottom plate at 55,000 cell/well. Human TruStain FcX (Fc Receptor Blocking Solution; Catalog number 422302; BioLegend, San Diego, CA) was added at a 1:20 final dilution of the manufacturer's stock and incubated for 10 minutes at room temperature in a volume of 25 μL. […]

AEKO cells = assay: TDCC co-culture assay, AEKO; type: cell-based, human; details: up to 1 nM, 69 hours
Procedure: Surface binding was measured on an isogenic panel of EpCAM-knockout and EpCAM-overexpressing cell lines derived from A-431, a human epidermoid carcinoma cell line (FIG. 34). AEKO and AEPO are isogenic control cell lines in which there is zero EpCAM expression (AEKO) or high EpCAM expression (AEKO-E4). AEKO is a commercially available subclone of A-431 in which human EpCAM expression is “knocked out” (disrupted) by a frameshift mutation (catalog number ab261902; Abcam, Cambridge, UK). AEPO was developed using the AEKO cell line as a starting point and restoring expression of human EpCAM by transducing with a lentiviral vector containing human EpCAM downstream of an EF1α promoter. […]
Co-culture assays were used to assess T-cell activation (CD69 upregulation), cytokine production or T-cell-dependent cellular cytotoxicity (TDCC) of target cells. […] While T cells were being processed, target cells were incubated with CellTiter-Glo 2.0 (Promega, Madison, WI) for 15 min at room temperature with shaking then read for luciferase light emission on a GloMax Explorer plate reader using default settings. Specific Cytotoxicity (%) was calculated from the relative luminescence unit values (RLU) using the formula: [1−(experimental RLU/vehicle-treated RLU))×100]. The frequency of CD69+ T-cells (%) was calculated as the percentage of CD69-positive events within the CF405M-negative population. […]

B1: Ab1070: conventional TCE containing the M37-H6L2 variant of the M37 clone (antibody)
heavy 1: EVQLVESGGGLVQPGGSLRLSCAASGFTFNTYAMNWVRQAPGKGLEWVARIRSKYNNYATYYADSVKGRFTISRDDSKSILYLQMNSLRAEDTAVYYCVRHGNFGNSYVSWFAYWGQGTLVTVSSGGGGSGGGGSGGGGSDIQVTQSPSSLSASVGDRVTITCRSSTGAVTTSNYANWVQQKPGKAFKGLIGGTNKLAPGVPSRFSGSLSGDDATLTISSLQPEDFATYYCALWYSNLWVFGQGTKLEIKGGGGS[human IgG1 Fc with changes left out]
heavy 2: EVQLVESGGGLVQPGGSLRLSCAASGFTFSNYWMNWVRQAPGKGLEWVAQIRVKSENFATHYADSVKGRFTISRDDSKSTVYLQMNSLRAEDTAVYYCTLYDGFSWGQGTLVTVSSASTKGPSVFPLAPSSKSTSGGTAALGCLVKDYFPEPVTVSWNSGALTSGVHTFPAVLQSSGLYSLSSVVTVPSSSLGTQTYICNVNHKPSNTKVDKKV[human IgG1 Fc with changes left out]
light: DIQMTQSPSSLSASVGDRVTITCSASSSVSSGNFHWYQQKPGKAPKLLIYRTSNLASGVPSRFSGSGSGTDYTLTISSLQPEDFATYYCQQWSGYPYTFGQGTKVEIKRTVAAPSVFIFPPSDEQLKSGTASVVCLLNNFYPREAKVQWKVDNALQSGNSQESVTEQDSKDSTYSLSSTLTLSKADYEKHKVYACEVTHQGLSSPVTKSFNRGEC
modifications: REGION 1..482: note = Ab1070 Knob HC; REGION 1..446: note = Ab1070 Hole HC; REGION 1..215: note = Ab1070 Hole LC
notes: conventional TCE containing the M37-H6L2 variant of the M37 clone
[1]
  T-cell activation (CD69 upregulation) with AEKO: did not induce T-cell activation
HCT-116 target cells
  TDCC of HCT-116 target cells: killed by TDCC
Human PBMCs
  binding to human PBMC T-cell subsets: dose-dependent
AEKO cells
  TDCC of AEKO target cells: spared from TDCC
